# Results reported in article PMC6602471.
# Some of the results follow. At the low end of the ranking the order means little.
# Biological target: T1, ETS1 (UniProt P14921)
# T1 sequence: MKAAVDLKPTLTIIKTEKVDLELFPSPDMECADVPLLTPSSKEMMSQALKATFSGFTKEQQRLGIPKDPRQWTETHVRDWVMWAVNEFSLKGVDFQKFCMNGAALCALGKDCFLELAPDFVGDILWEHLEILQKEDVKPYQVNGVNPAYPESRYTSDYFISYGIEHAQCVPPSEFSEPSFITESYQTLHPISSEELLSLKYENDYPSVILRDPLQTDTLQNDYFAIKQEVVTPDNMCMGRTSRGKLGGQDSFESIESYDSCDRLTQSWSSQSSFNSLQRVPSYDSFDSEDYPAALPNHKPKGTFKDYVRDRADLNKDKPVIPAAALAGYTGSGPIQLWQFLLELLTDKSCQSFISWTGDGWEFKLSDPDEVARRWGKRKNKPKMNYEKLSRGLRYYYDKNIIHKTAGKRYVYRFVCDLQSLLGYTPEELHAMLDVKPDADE
# Test: custom PBM
# Details: custom protein-binding microarray; buffer, salt, pH and temperature not stated; high values mean tight binding; double strand, one strand shown
row,Sequence,binding signal (log fluorescence intensity)
1,CACAATTTTTACAGTAATGTAGCACGTGTAACTCCTGTCTTGATTCGCTTGACGCTGCTG,8.24
2,GCTGCTGCGGTGCATACCCCACCGTATGTGACCCCGGTCTTGATTCGCTTGACGCTGCTG,8.23
3,GTGTATAGGATCCCATCCAACACACGTGTGAAAATGGTCTTGATTCGCTTGACGCTGCTG,8.27
4,CACAATTTTGACAGTAATGTAGCACGCGTAACTCCTGTCTTGATTCGCTTGACGCTGCTG,8.09
5,TACTGACTTATATATGCGAATGCACATGAAAAGACCGTCTTGATTCGCTTGACGCTGCTG,8.2
6,GTGTATAGGATCCCATCCAACACACGTGTTAAAATTGTCTTGATTCGCTTGACGCTGCTG,8.32
7,CACAACTTTTACAGTAATGTAGCACGCGTAACTCCTGTCTTGATTCGCTTGACGCTGCTG,8.25
8,AAAAGGGAAGACGGTTGTGGTAGTTCCGGGTATTAAGTCTTGATTCGCTTGACGCTGCTG,8.59
9,CGAAAGTGTCGTAAACGTCGGATATCCGGTTCTTCTGTCTTGATTCGCTTGACGCTGCTG,11.9
10,TACGGACTTATATATGCGAATGCACATGAATAGACCGTCTTGATTCGCTTGACGCTGCTG,8.01
11,CGTAAGTGTCGTAAACGTCGGATATCCGGTTCTTCTGTCTTGATTCGCTTGACGCTGCTG,12
12,CGGAAGTGTCGTTAACGTCGGATATCCGGTTCTTCTGTCTTGATTCGCTTGACGCTGCTG,12
13,CACAATTTCTACAGTAATGTAGCACGCGTAACTCCTGTCTTGATTCGCTTGACGCTGCTG,8.23
14,CAAAATTTTTACAGTAATGTAGCACGCGTAACTCCTGTCTTGATTCGCTTGACGCTGCTG,8.29
15,CAGCATAGGACTTCTTCCCTGAAGCAATAGATAACCGTCTTGATTCGCTTGACGCTGCTG,8.12
16,TGTCGGGTAAGGGAATGTACATCACGTGAATGAAAAGTCTTGATTCGCTTGACGCTGCTG,8.18
17,CAGCATAGGACTTCTTCGCTGAAGCAATTGATAACCGTCTTGATTCGCTTGACGCTGCTG,8.29
18,CGGAAGTGTCGAAAACGTCGGATATCCGGTTCTTCTGTCTTGATTCGCTTGACGCTGCTG,12
19,CTGGGACTTGACCCAACTCTGCCAAGTGGGTCGTTTGTCTTGATTCGCTTGACGCTGCTG,8.19
20,TTGGGACTTGACCCAACTCTGCCACGTGGGTCGTTTGTCTTGATTCGCTTGACGCTGCTG,8.2
21,TTAAGGGAAGACGGTTGTGGTAGTTCCGGGTATTAAGTCTTGATTCGCTTGACGCTGCTG,8.48
22,GGAAATAGGCCCAGGGTAACACCGGAAGTGGGCTTAGTCTTGATTCGCTTGACGCTGCTG,12
23,TCCGGCTACCAGCTCCACCCACTTCTGGCCTTGTAGGTCTTGATTCGCTTGACGCTGCTG,8.26
24,CACAATTTTTACAGTAATGTAGCACGCTTAACTCCTGTCTTGATTCGCTTGACGCTGCTG,8.27
25,GTGTATAGAATCCCATCCAACACACGTGTTAAAATGGTCTTGATTCGCTTGACGCTGCTG,8.26
26,CGGAAGTGTCGTAAACGTCGGATATCCGGTCCTTCTGTCTTGATTCGCTTGACGCTGCTG,12.1

row,Sequence,binding signal (log fluorescence intensity)
1,CTGGGACTTGACCCAACTCTTCCACGTGGGTCGTTTGTCTTGATTCGCTTGACGCTGCTG,8.23
2,GATTAATTTCTGCCCTGATTCGCACGTGCCATAACAGTCTTGATTCGCTTGACGCTGCTG,8.07
3,GCTGCTGAGGTGCATACCCCACCGGATGTGACCCCGGTCTTGATTCGCTTGACGCTGCTG,10.1
4,TCCGGCTACCAGCTGCACCCACTTCAGGCCTTGTAGGTCTTGATTCGCTTGACGCTGCTG,8.44
5,CAGCATAGGACTTCTTCCATGAAGCAATTGATAACCGTCTTGATTCGCTTGACGCTGCTG,8.31
6,CGGAAGTGTCGTAAACGTCGGAAATCCGGTTCTTCTGTCTTGATTCGCTTGACGCTGCTG,9.71
7,CACAATTTTTACAGTAATGTAGCCCGCGTAACTCCTGTCTTGATTCGCTTGACGCTGCTG,8.29
8,TCCCGCTACCAGCTCCACCCACTTCAGGCCTTGTAGGTCTTGATTCGCTTGACGCTGCTG,8.14
9,CTGGGACTTGACCCAACTCTGCCACGTGGGCCGTTTGTCTTGATTCGCTTGACGCTGCTG,8.02
10,TAAAGGGGAGACGGTTGTGGTAGTTCCGGGTATTAAGTCTTGATTCGCTTGACGCTGCTG,8.23
11,CACAATTTTTACACTAATGTAGCACGCGTAACTCCTGTCTTGATTCGCTTGACGCTGCTG,8.14
12,GATTAATGTCTGCCCTTATTCGCACGTGCCATAACAGTCTTGATTCGCTTGACGCTGCTG,8.17
13,CTCGGACTTGACCCAACTCTGCCACGTGGGTCGTTTGTCTTGATTCGCTTGACGCTGCTG,8.17
14,GCTGCTGCGGTGCATACCCCCCCGGATGTGACCCCGGTCTTGATTCGCTTGACGCTGCTG,8.71
15,CAGCATAGGACTTCTTCCCTGATGCAATTGATAACCGTCTTGATTCGCTTGACGCTGCTG,8.16
16,CGGAAGTGTCGTAAACGTCGGATATCCGGTTCTCCTGTCTTGATTCGCTTGACGCTGCTG,11.8
17,CTGGGTCTTGACCCAACTCTGCCACGTGGGTCGTTTGTCTTGATTCGCTTGACGCTGCTG,8.39
18,TAAAGGGAAGACGGTTGTAGTAGTTCCGGGTATTAAGTCTTGATTCGCTTGACGCTGCTG,8.81
19,CAGCTTAGGACTTCTTCCCTGAAGCAATTGATAACCGTCTTGATTCGCTTGACGCTGCTG,8.12
20,TCCGGCTACCAGCTCCACCCCCTTCAGGCCTTGTAGGTCTTGATTCGCTTGACGCTGCTG,8.13
21,TACTGACTTATATACGCGAATGCACATGAATAGACCGTCTTGATTCGCTTGACGCTGCTG,8.08
22,GATTAATTTCTGCACTTATTCGCACGTGCCATAACAGTCTTGATTCGCTTGACGCTGCTG,8.18
23,CTGCGACTTGACCCAACTCTGCCACGTGGGTCGTTTGTCTTGATTCGCTTGACGCTGCTG,8.19
24,CGGAAGTGTCGTAACCGTCGGATATCCGGTTCTTCTGTCTTGATTCGCTTGACGCTGCTG,11.9
25,GCTGCTGCGGTGCAGACCCCACCGGATGTGACCCCGGTCTTGATTCGCTTGACGCTGCTG,10.2
26,CACAATTTTTACGGTAATGTAGCACGCGTAACTCCTGTCTTGATTCGCTTGACGCTGCTG,8.19
